Reference: PMC6830105
No constants are given. Whether binding was seen depends on the method and setting. Binding seen in cells or lysates may run through a third protein. Some entries that bind do so weakly or less than the wild type.

Amino acid sequences for entries named in this document (tags omitted). A change or cut given only in a name is not applied to a line headed by its entry. Residues count along the entry.
UniProt P14618: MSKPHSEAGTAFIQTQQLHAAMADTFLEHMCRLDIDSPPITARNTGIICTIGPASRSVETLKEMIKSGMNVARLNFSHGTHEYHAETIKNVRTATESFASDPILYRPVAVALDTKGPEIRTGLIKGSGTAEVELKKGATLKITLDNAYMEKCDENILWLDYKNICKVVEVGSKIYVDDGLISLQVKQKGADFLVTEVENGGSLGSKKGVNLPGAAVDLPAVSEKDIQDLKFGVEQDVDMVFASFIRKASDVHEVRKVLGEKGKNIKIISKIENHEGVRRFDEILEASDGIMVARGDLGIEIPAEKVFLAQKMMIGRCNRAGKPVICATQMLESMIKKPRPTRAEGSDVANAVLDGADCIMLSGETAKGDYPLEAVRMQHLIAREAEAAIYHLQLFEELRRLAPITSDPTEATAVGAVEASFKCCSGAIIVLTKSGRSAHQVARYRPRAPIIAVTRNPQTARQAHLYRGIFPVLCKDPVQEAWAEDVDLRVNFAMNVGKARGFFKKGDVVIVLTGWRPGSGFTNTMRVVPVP
GST-PKM2 N-terminal domain, amino acids 1-116: residues 1-116 of P14618
GST-PKM2 amino acids 116-218: residues 116-218 of P14618
GST-PKM2 amino acids 218-389: residues 218-389 of P14618
GST-PKM2 amino acids 389-531: residues 389-531 of P14618
UniProt P27449: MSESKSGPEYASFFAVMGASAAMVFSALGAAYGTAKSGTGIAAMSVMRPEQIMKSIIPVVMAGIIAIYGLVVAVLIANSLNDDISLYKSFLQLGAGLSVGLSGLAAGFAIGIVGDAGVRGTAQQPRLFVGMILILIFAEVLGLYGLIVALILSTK

How the values were obtained:
[1] = biological target: GST-PKM2 amino acids 116-218 (UniProt P14618); assay: pull-down; cell-free GST pull-down; purified GST-PKM2 fusion proteins (20 μg) on GST-agarose in STE buffer, overnight at 4 °C, eluted with 50 mM reduced glutathione; Western blot
[2] = biological target: GST-PKM2 N-terminal domain, amino acids 1-116 (UniProt P14618); assay: as above
[3] = biological target: GST-PKM2 amino acids 218-389 (UniProt P14618); assay: as above
[4] = biological target: GST-PKM2 amino acids 389-531 (UniProt P14618); assay: as above
Flag-PKM2 mutant R399E = Flag-PKM2 mutant R399E (UniProt P14618); assay: co-IP; TE8 cells transfected with Flag-PKM2 or Flag-PKM2 R399E; reciprocal IP, anti-Flag IP also under high (25 mM) or low (0.5 mM) glucose; precleared lysates with protein G Sepharose and antibody overnight at 4 °C; Western blot
Flag-PKM2 (wild type) = Flag-PKM2 (wild type) (UniProt P14618); assay: as above
[5] = biological target: pyruvate kinase isoform M2 (PKM2), endogenous in TE8 cells (human (endogenous in TE8)) (UniProt P14618); assay: co-IP; endogenous proteins of TE8 cells; IP with anti-ATP6V0C or anti-PKM2, high or low glucose; precleared lysates with protein G Sepharose overnight at 4 °C; Western blot

binding [1] | binding [2] | binding [3] | binding [4] | binding (Flag-PKM2 mutant R399E) | binding (Flag-PKM2 (wild type)) | binding [5] | Substance
no binding | binds | no binding | no binding |  |  |  | ATP6V0C as used in the cell-free GST pull-down (from UniProt P27449 1-155)
 |  |  |  | binds | binds | binds | vacuolar H+-ATPase subunit V0C (ATP6V0C), endogenous in TE8 cells (from UniProt P27449 1-155)
